Experimental data published in ChEMBL document CHEMBL4888484, “Replenishing the malaria drug discovery pipeline: Screening and hit evaluation of the MMV Hit Generation Library 1 (HGL1) against asexual blood stage Plasmodium falciparum ,using a nano luciferase reporter read-out” (2022).
Among all 150,000 compounds or so, about 540 (0.36%) showed an effect of 50% or more. Some of the results follow.

tested on: Plasmodium falciparum; assay: Primary screen in NF54 nanoGlo assay, in single point, at 2uM, 72h; a lower Z score goes with more inhibition; assay type: functional, Erythrocyte; conditions: timepoint 72 hour

First: Cc1nc(-c2cnc3ccccn3c2=O)n(CCCO)n1
Second: Cc1csc(Cn2nc3ccc(C(C)(C)C)nn3c2=O)n1
The “% Inhibition” value of the first is higher: -6% for the first, -9% for the second.

Going from `COc1cccc(CN2CC[C@H](Cc3nnc(CC(C)C)o3)C2)c1OC` to `CCOc1cc(C(=O)N2CCO[C@@H](COc3ccc(Cl)c(C)c3)C2)ccc1OC`, the “% Inhibition” value falls from 8% to 3%.

Compared with `COc1cc(CC(=O)Nc2[nH]nc(-c3ccc(C)o3)c2C)ccn1`, `COc1ccc(-c2cc(NC(=O)c3oc4cc(C)cc(C)c4c3C)on2)cc1OC` is higher in “% Inhibition” value: -10% for the first, -1% for the second.

Compared with `O=S(=O)(N1CCCCC1)N1CC2CCCC2C1` (centres undefined), `COCC[C@H]1CCCCN1C(=O)c1cn(CCC2CCCCC2)nn1` is lower in “% Inhibition” value: -9% for the first, -19% for the second.

First: CCN(Cc1ccc(OC)c(F)c1)CC(O)COC1CCCc2ccccc21 (centres undefined)
Second: COc1ccc(C(=O)N2CCC3(CC2)NC(=O)c2cc(F)ccc2N3C)c(OC)c1
The “% Inhibition” value of the first is lower: -11% for the first, -2% for the second.

Going from `CCN(CC)CC(=O)N[C@@H](C)Cc1cnccn1` to `CCc1cnccc1C(=O)NC1CC12CCOc1ccccc12` (centres undefined), the “% Inhibition” value falls from -3% to -17%.

Going from `COc1ccccc1CNC(=O)c1ccc(Cn2c(=O)c3ccccc3n(Cc3ccc(F)cc3)c2=O)cc1` to `NS(=O)(=O)c1ccc(CNC(=O)c2cc(-c3cccnc3)nc3ccccc23)cc1`, the “% Inhibition” value falls from -1% to -5%.

Going from `Cc1ccc([C@@H]2Cn3nnc(C(=O)N4CCC(C(=O)NCC(C)C)CC4)c3CO2)cc1` to `Cc1ccc(N2CCN(C(=O)c3cc4n(n3)C[C@@H](c3ccc(Cl)cc3)OC4)CC2)cc1`, the “% Inhibition” value rises from -23% to -3%.

`Cc1cc(Cl)c2c(c1)[C@@H](N(Cc1nnc(C)o1)C1CC1)CCCO2` and `COCc1nc(C)cc(N[C@@H](COC)C2CCOCC2)n1` are the same in “% Inhibition” value: -2% for the first, -2% for the second.

`N#Cc1ccc(OCCCN2CCC[C@H](Cn3cncn3)C2)cc1` and `CCN1C[C@@H](c2ccccc2)CC2(CCN(c3cc(C)ncn3)CC2)C1` are the same in “% Inhibition” value: -10% for the first, -10% for the second.

Going from `COC(=O)c1ccc(N2CCC(C)CC2C)nn1` (centres undefined) to `COc1ccc(CC(=O)N2CC[C@H](O)CC23CCC3)nc1`, the “% Inhibition” value falls from 3% to -10%.

First: Cc1ccc(NCc2cnnn2C)c(C)n1
Second: CCc1nc(OC)ccc1NC(=O)N1CCC[C@H]1c1cn(C)nc1C
The “% Inhibition” value of the first is lower: -13% for the first, -3% for the second.

Compared with `COCCc1ccnc(NC(=O)N2CCCS(=O)(=O)C[C@@H]2C)c1`, `Cc1ccccc1OCC(=O)N[C@H]1CN(S(C)(=O)=O)C[C@@H]1C1CC1` is lower in “% Inhibition” value: -6% for the first, -7% for the second.

First: CN(CCn1cccn1)C(=O)CN1C[C@@H](Cc2ccccc2)CC1=O
Second: CO[C@H]1[C@@H]2CC[C@H]1CN(Cc1ccccc1C(=O)O)C2
The “% Inhibition” value of the first is higher: 12% for the first, -4% for the second.

`Nc1nc(CC(=O)NCc2ccccc2F)n[nH]1` and `C[C@@H](c1nc(COc2cccc(F)c2)n[nH]1)N1CCCCC1` are the same in “% Inhibition” value: -11% for the first, -11% for the second.

Going from `CCCS(=O)(=O)N1CCC[C@H]1c1noc(COCC)n1` to `CCOC(=O)c1c(S(=O)(=O)N2CCC(C(=O)NC(C)(C)C)CC2)c(C)n(C)c1C`, the “% Inhibition” value rises from -7% to 0%.

First: CO[C@H]1COC[C@@H]1NC(=O)c1sccc1Cl
Second: CC(C)N1C(=O)CN(CN2CCC[C@H]2c2ccsc2)C1=O
The “% Inhibition” value of the first is higher: -9% for the first, -11% for the second.

Compared with `O=C(O)C12CCC(C(=O)NCC3(C4(O)CCC4)CC3)(CC1)CC2`, `CC1(C)CN(C(=O)Cn2cnc(C#N)n2)CC2(CCCC2)O1` is lower in “% Inhibition” value: 7% for the first, -9% for the second.

Going from `Cc1oc(-c2cc(F)cc(F)c2)nc1Cn1cccn1` to `Cn1ccnc1-c1nnc(NS(=O)(=O)c2ccc(Cl)cc2)o1`, the “% Inhibition” value rises from -9% to -4%.

Compared with `Cc1ccc(C)c(S(=O)(=O)NC[C@H](C)O)c1`, `COc1ccc(S(=O)(=O)N[C@H]2CCOC2=O)c2c1CCCC2` is higher in “% Inhibition” value: -5% for the first, 4% for the second.

Compared with `COc1cc2c(cc1OC)CN(C(=O)[C@@H](C)Cn1cncn1)CC2`, `CCCCn1c(N)c(N2CCOCC2)c(=O)n(CC(=O)Nc2cccc(F)c2)c1=O` is higher in “% Inhibition” value: 4% for the first, 8% for the second.

Compared with `Cc1nc(-c2cnc3ccccn3c2=O)n(CCCO)n1`, `Cc1csc(Cn2nc3ccc(C(C)(C)C)nn3c2=O)n1` is higher in Z score: 0.8 for the first, 1.96 for the second.

Compared with `COc1cccc(CN2CC[C@H](Cc3nnc(CC(C)C)o3)C2)c1OC`, `CCOc1cc(C(=O)N2CCO[C@@H](COc3ccc(Cl)c(C)c3)C2)ccc1OC` is higher in Z score: -1.1 for the first, -0.38 for the second.

First: COc1cc(CC(=O)Nc2[nH]nc(-c3ccc(C)o3)c2C)ccn1
Second: COc1ccc(-c2cc(NC(=O)c3oc4cc(C)cc(C)c4c3C)on2)cc1OC
The Z score of the first is higher: 1.28 for the first, 0.1 for the second.

Going from `O=S(=O)(N1CCCCC1)N1CC2CCCC2C1` (centres undefined) to `COCC[C@H]1CCCCN1C(=O)c1cn(CCC2CCCCC2)nn1`, the Z score rises from 0.98 to 2.83.

Going from `CCN(Cc1ccc(OC)c(F)c1)CC(O)COC1CCCc2ccccc21` (centres undefined) to `COc1ccc(C(=O)N2CCC3(CC2)NC(=O)c2cc(F)ccc2N3C)c(OC)c1`, the Z score falls from 1.25 to 0.22.

First: CCN(CC)CC(=O)N[C@@H](C)Cc1cnccn1
Second: CCc1cnccc1C(=O)NC1CC12CCOc1ccccc12 (centres undefined)
The Z score of the first is lower: 0.44 for the first, 1.78 for the second.

First: COc1ccccc1CNC(=O)c1ccc(Cn2c(=O)c3ccccc3n(Cc3ccc(F)cc3)c2=O)cc1
Second: NS(=O)(=O)c1ccc(CNC(=O)c2cc(-c3cccnc3)nc3ccccc23)cc1
The Z score of the first is lower: 0.06 for the first, 0.81 for the second.

First: Cc1ccc([C@@H]2Cn3nnc(C(=O)N4CCC(C(=O)NCC(C)C)CC4)c3CO2)cc1
Second: Cc1ccc(N2CCN(C(=O)c3cc4n(n3)C[C@@H](c3ccc(Cl)cc3)OC4)CC2)cc1
The Z score of the first is higher: 2.14 for the first, 0.43 for the second.

Compared with `Cc1cc(Cl)c2c(c1)[C@@H](N(Cc1nnc(C)o1)C1CC1)CCCO2`, `COCc1nc(C)cc(N[C@@H](COC)C2CCOCC2)n1` is higher in Z score: 0.26 for the first, 0.34 for the second.

First: N#Cc1ccc(OCCCN2CCC[C@H](Cn3cncn3)C2)cc1
Second: CCN1C[C@@H](c2ccccc2)CC2(CCN(c3cc(C)ncn3)CC2)C1
The Z score of the first is higher: 1.47 for the first, 1.12 for the second.

Going from `COC(=O)c1ccc(N2CCC(C)CC2C)nn1` (centres undefined) to `COc1ccc(CC(=O)N2CC[C@H](O)CC23CCC3)nc1`, the Z score rises from -0.3 to 1.

Compared with `Cc1ccc(NCc2cnnn2C)c(C)n1`, `CCc1nc(OC)ccc1NC(=O)N1CCC[C@H]1c1cn(C)nc1C` is lower in Z score: 2 for the first, 0.62 for the second.

Compared with `COCCc1ccnc(NC(=O)N2CCCS(=O)(=O)C[C@@H]2C)c1`, `Cc1ccccc1OCC(=O)N[C@H]1CN(S(C)(=O)=O)C[C@@H]1C1CC1` is higher in Z score: 1.16 for the first, 1.23 for the second.

Compared with `CN(CCn1cccn1)C(=O)CN1C[C@@H](Cc2ccccc2)CC1=O`, `CO[C@H]1[C@@H]2CC[C@H]1CN(Cc1ccccc1C(=O)O)C2` is higher in Z score: -2.03 for the first, 0.86 for the second.

First: Nc1nc(CC(=O)NCc2ccccc2F)n[nH]1
Second: C[C@@H](c1nc(COc2cccc(F)c2)n[nH]1)N1CCCCC1
The Z score of the first is lower: 1.96 for the first, 2.09 for the second.

Going from `CCCS(=O)(=O)N1CCC[C@H]1c1noc(COCC)n1` to `CCOC(=O)c1c(S(=O)(=O)N2CCC(C(=O)NC(C)(C)C)CC2)c(C)n(C)c1C`, the Z score falls from 0.92 to 0.05.

Compared with `CO[C@H]1COC[C@@H]1NC(=O)c1sccc1Cl`, `CC(C)N1C(=O)CN(CN2CCC[C@H]2c2ccsc2)C1=O` is lower in Z score: 1.78 for the first, 1.57 for the second.

First: O=C(O)C12CCC(C(=O)NCC3(C4(O)CCC4)CC3)(CC1)CC2
Second: CC1(C)CN(C(=O)Cn2cnc(C#N)n2)CC2(CCCC2)O1
The Z score of the first is lower: -1.02 for the first, 1.14 for the second.

Compared with `Cc1oc(-c2cc(F)cc(F)c2)nc1Cn1cccn1`, `Cn1ccnc1-c1nnc(NS(=O)(=O)c2ccc(Cl)cc2)o1` is lower in Z score: 1.45 for the first, 0.48 for the second.

First: Cc1ccc(C)c(S(=O)(=O)NC[C@H](C)O)c1
Second: COc1ccc(S(=O)(=O)N[C@H]2CCOC2=O)c2c1CCCC2
The Z score of the first is higher: 0.52 for the first, -0.56 for the second.

First: COc1cc2c(cc1OC)CN(C(=O)[C@@H](C)Cn1cncn1)CC2
Second: CCCCn1c(N)c(N2CCOCC2)c(=O)n(CC(=O)Nc2cccc(F)c2)c1=O
The Z score of the first is higher: -0.52 for the first, -1.22 for the second.
